# Test results from publication PMC4336329 (PLoS ONE, 2015).
# Screen size: about 310,000 compounds; about 2,200 (0.71%) showed an effect of 50% or more. The effect is printed as a negative number. Some of the results follow.
# Molecular target: human ether-à-go-go-related gene (hERG) potassium channel (human, UniProt Q12809)
# Assay: primary screen, population patch clamp on CHO cells stably expressing hERG
# human ether-à-go-go-related gene (hERG) potassium channel, sequence (Q12809 whole entry, looked up): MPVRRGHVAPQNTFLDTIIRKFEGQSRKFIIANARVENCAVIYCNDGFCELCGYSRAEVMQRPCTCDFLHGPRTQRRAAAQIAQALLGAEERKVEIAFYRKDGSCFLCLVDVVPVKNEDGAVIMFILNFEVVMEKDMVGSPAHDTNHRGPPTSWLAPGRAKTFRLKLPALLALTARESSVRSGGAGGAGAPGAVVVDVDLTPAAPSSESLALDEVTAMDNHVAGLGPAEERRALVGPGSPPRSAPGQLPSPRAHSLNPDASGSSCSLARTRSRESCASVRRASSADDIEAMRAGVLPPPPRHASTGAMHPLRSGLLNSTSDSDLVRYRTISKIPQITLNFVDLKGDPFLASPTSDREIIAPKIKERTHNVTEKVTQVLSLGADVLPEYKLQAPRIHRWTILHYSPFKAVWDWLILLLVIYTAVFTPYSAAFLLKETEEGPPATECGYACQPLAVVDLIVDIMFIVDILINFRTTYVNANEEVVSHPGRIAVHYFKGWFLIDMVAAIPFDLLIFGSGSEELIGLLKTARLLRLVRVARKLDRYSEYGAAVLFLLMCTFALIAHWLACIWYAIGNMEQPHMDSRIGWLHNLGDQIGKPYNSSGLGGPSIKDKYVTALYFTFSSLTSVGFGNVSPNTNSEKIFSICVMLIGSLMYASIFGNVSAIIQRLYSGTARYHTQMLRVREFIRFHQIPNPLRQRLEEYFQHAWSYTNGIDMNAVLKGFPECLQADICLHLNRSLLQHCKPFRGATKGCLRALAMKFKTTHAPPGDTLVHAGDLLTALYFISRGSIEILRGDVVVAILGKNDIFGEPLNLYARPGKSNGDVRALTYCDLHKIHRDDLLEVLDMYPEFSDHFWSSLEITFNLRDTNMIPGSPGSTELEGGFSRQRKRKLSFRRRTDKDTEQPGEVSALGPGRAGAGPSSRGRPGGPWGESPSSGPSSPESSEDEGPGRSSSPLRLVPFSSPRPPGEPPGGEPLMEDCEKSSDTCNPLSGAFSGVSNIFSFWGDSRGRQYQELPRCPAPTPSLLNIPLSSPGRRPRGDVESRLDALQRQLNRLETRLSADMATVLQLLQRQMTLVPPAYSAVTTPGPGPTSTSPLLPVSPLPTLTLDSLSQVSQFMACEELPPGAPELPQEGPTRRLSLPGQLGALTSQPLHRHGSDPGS
row,Structure (SMILES),"hERG current change (%, negative = inhibition) at 1uM [%]"
1,C=CCn1cc(C(=O)NCc2ccc(Cl)cc2)c(=O)c2cc(S(=O)(=O)N(CC)CC)ccc21,9.81
2,CC(C)(C)N1C(=O)[C@H]2[C@@H](c3ccc(Br)cc3)N3C(=O)N(c4ccccc4)C(=O)[C@@]3(Cc3ccccc3)[C@H]2C1=O,1.42
3,COc1ccc2[nH]c(-c3ccc(C)cc3)cc(=O)c2c1,15.7
4,COc1ccccc1CC(=O)N1CCN(c2ccccc2)CC1,15.1
5,Cc1ccc(-n2c(=O)[nH]c3ncccc3c2=O)cc1,14.4
6,O=C(Cn1nc(C(=O)O)c2ccccc2c1=O)Nc1ccc(F)cc1,15.3
7,Cc1ccc(N(CC(O)Cn2nc(C)cc2C)S(=O)(=O)c2ccc3ccccc3c2)cc1 (centres unmarked),13.7
8,Cc1ccc(C(=O)N/C(=C/c2ccc(C(C)C)cc2)C(=O)NCCCN2CCOCC2)cc1,-22
9,CCC(=O)Nc1nnc(S(=O)(=O)N(C)c2cc(C)cc(C)c2)s1,11.6
10,Cc1ccc(-c2nn(-c3ccccc3)cc2/C=C(\C#N)c2cccc(C#N)c2)o1,3.49
11,CC1(NC(=O)c2cccc(S(=O)(=O)N3CCN(c4ccccc4)CC3)c2)CCS(=O)(=O)C1 (centres unmarked),5.75
12,c1cc2c(cc1-c1[nH]ncc1CN1CC3C[C@@H]4CC1C[C@H](C3)C4)OCO2,-7.36
13,CCN1CCN(C(=O)/C=C/c2ccc(C(C)C)cc2)CC1,-7.83
14,CCN(CC)c1ccc(NC(=O)C2CC(=O)N(Cc3ccccc3)C2)cc1 (centres unmarked),9.96
15,CCOC(=O)c1c(C)c(C(=O)NCc2cccnc2)c(C)n1C,12.4
16,Cc1cc(N2CCN(CC(O)C(F)(F)F)CC2)c2ccccc2n1 (centres unmarked),1.42
17,Cc1ccc(N(CC(=O)Nc2ccccc2-c2ccccc2)S(=O)(=O)c2ccccc2)c(C)c1,-1.18
18,Cc1cccc(NS(=O)(=O)c2ccc3[nH]c(=O)[nH]c3c2)c1C,13.7
19,COCCCn1c(=O)c2ccccc2n(CC(=O)NC2CCCC2)c1=O,16.9

row,Structure (SMILES),"hERG current change (%, negative = inhibition) at 1uM [%]"
1,CCNC(=O)C(Sc1ccccc1)c1ccccc1 (centres unmarked),4.72
2,COc1ccc(-n2nc(C(=O)NCC(=O)NCC3CCCO3)c3ccccc3c2=O)c(OC)c1 (centres unmarked),-6.84
3,Cc1cc(C)cc(N(C(=O)c2csnn2)C(C(=O)NC(C)(C)C)c2ccccn2)c1 (centres unmarked),9.68
4,CCN1CCN(C(=S)c2ccc(Cl)cc2)CC1,-3.24
5,CC(=O)Nc1ccc(Nc2cc(C)nc3ccccc23)cc1,9.22
6,Cn1c(=O)c2cn(-c3cccc4ccccc34)cc2n(C)c1=O,2.3
7,COc1ccc(C(=O)Nc2nnc(-c3ccccc3)s2)cc1,12.9
8,NC(=O)C1CCN(C(=S)c2cccs2)CC1,10.8
9,O=C(O)C1C2C=CC(C2)C1C(=O)N1CCN(CCO)CC1 (centres unmarked),3.31
10,NS(=O)(=O)c1ccc(Nc2nc(-c3ccc(F)cc3)cs2)cc1,11.4
11,O=C(c1cccc(NS(=O)(=O)c2cccc(C(F)(F)F)c2)c1)N1CCOCC1,15.2
12,CC(C)C12CN3CC(C(C)C)(CN(C1)C3c1ccc([N+](=O)[O-])o1)C2=O (centres unmarked),7.51
13,Cc1[nH]c(=O)[nH]c(=O)c1S(=O)(=O)NCCOC12CC3CC(CC(C3)C1)C2,9.88
14,CC(=O)N1CCc2cc(S(=O)(=O)NCCC(=O)N3CCN(c4ccccn4)CC3)ccc21,-16.8
15,Cc1cc(=O)[nH]c(N/N=C/c2cccc(Br)c2)n1,7.67
16,CCN(CC)C(=O)N1CCc2ccccc21,-1.23
17,CCCCCOC(=O)C1=C(C)NC(=O)NC1c1ccccc1 (centres unmarked),10.3
18,CCCCc1nnc(NC(=O)CCc2ccccc2)s1,16.2
19,C=CCn1c(CNS(=O)(=O)c2ccc(Br)cc2)n[nH]c1=S,8.31

row,Structure (SMILES),"hERG current change (%, negative = inhibition) at 1uM [%]"
1,CCOc1ccccc1NC(=O)C(C)SCc1ccccc1 (centres unmarked),11.7
2,O=C(CNC(=O)c1ccc([N+](=O)[O-])cc1)N/N=C\c1ccc(OC(=O)c2ccccc2)cc1,13.6
3,CCOC(=O)CN1C(=O)S/C(=C/c2ccc(OCc3ccc(C(=O)O)cc3)cc2)C1=O,13.9
4,COC(=O)Nc1sc2nc(C)cc(C)c2c1-n1cccc1,-4.13
5,COc1cc(OC)cc(C(=O)NC(C(=O)NNC(=O)c2cc(Cl)ccc2OC)C(C)C)c1 (centres unmarked),17.7
6,CCOC(=O)C1=C(O)/C(=C\c2cc(C)n(-c3ccc(F)cc3)c2C)N=C1C,11.2
7,O=C1OCC2=C1C(c1ccc(Cl)cc1)CC(=O)N2c1ccc(F)cc1 (centres unmarked),-10.2
8,COC(=O)C(Cc1ccccc1)NC(=O)CSc1nc(N)cc(=O)[nH]1 (centres unmarked),16.3
9,Nc1nc(NCCOCCO)nc(NCc2ccccc2)c1[N+](=O)[O-],13.5
10,COCCOc1ccc(C(F)(F)F)cc1NC(=O)c1ccccc1,-2.95
11,CC(C)C(C)NC(=O)COC(=O)C1CCN(S(=O)(=O)c2ccc3c(c2)OCCO3)CC1 (centres unmarked),0.23
12,C=CCn1c(Cc2c[nH]c3ccccc23)nnc1SCC(=O)NCc1ccccc1,1.79
13,COCCN1C(=O)N[C@@H](c2ccccc2)[C@H](C(=O)OC)[C@H]1C,7.56
14,CC(C)(C)NC(=O)NC12CC3CC(CC(C3)C1)C2,20.6
15,CN1CCC(=NNC(=O)C(=O)Nc2ccc(F)cc2)CC1,15.5
16,Cc1cc(C)n(S(=O)(=O)c2ccc(C(C)(C)C)cc2)n1,7.18
17,Cc1ccc(NCC(=O)N/N=C/c2ccc(OC(=O)c3ccco3)cc2)cc1,5.32
18,c1csc(C2=Nn3c(nnc3-c3ccncc3)SC2)c1,0.765
